Data published in PubChem BioAssay AID485341 (National Center for Advancing Translational Sciences (NCATS), 2010).
About 1,700 (0.52%) of roughly 330,000 compounds were called active. This list was built around the results that the source calls inconclusive (neither active nor inactive); the mix of calls is not that of the screen. Calls come from the whole dose curve; as a rule, active = well fitted inhibition curve with a large enough effect; inconclusive = small, poorly fitted or top-dose-only effect; inactive = no such curve, though single readings can be large or run the other way. Potencies of inconclusive entries are doubtful fits and often do not repeat.

molecular target: Beta-lactamase (Escherichia coli (strain K12)) (UniProt P00811); test: qHTS Inhibitors of AmpC Beta-Lactamase (assay without detergent); settings: AmpC nitrocefin hydrolysis, absorbance 480 nm, 0.0001% Triton; series mostly up to 57.1 µM; note: nearly all actives have a fitted effect of over 20% in size
In short: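 20 mM phosphate pH 7.0 + 0.01% (detergent screen) or 0.0001% Triton X-100; 5.3 nM AmpC reagent; cpd preinc 15 min RT; nitrocefin (800 uM stock) to start; A480 q20 s × 4 min; Activity was normalised to no-enzyme and no-compound control wells.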
Potency is the fitted concentration of half-maximal effect; tags give direction and shape of the fitted curve.

UniProt P00811, sequence (P00811 whole entry, looked up): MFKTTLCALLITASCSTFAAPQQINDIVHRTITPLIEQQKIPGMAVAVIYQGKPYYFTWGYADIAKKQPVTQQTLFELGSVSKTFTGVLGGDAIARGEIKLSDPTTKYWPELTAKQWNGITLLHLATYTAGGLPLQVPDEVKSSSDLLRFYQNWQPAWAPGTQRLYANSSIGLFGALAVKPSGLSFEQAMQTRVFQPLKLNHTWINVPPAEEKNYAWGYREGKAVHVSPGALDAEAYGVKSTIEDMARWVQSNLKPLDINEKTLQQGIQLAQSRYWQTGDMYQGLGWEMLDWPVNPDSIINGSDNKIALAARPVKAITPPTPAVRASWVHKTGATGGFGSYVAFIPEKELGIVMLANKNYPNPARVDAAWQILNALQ

Compound	Potency
COc1ccc(CCNS(=O)(=O)CCNC(=O)c2ccccc2)cc1	inconclusive: 28.2 µM [inhibitor, single point]
CCC(C)[C@H](NC(=O)[C@@H]1Cc2ccccc2CN1)C(=O)NCc1ccc(OC)cc1 (some centres undefined)	inactive
Cc1cc2cc(CNC(=O)Nc3ccccc3)ccc2[nH]1	active: 22.4 µM
O=C(Nc1cnc2ccccn2c1=O)c1ccc(F)cc1	inconclusive: 8.91 µM [inhibitor, partial curve, poor fit]
CCC(=O)N1CCN(c2ccccc2NC(=O)COc2ccc(C(C)C)cc2)CC1	inactive
Cc1ccc(OCCn2c(C3CC(=O)N(Cc4ccccc4)C3)nc3ccccc32)cc1 (centres undefined)	active: 44.7 µM
O=C(CSc1nc2ncc(Br)cc2[nH]1)c1cccc([N+](=O)[O-])c1	active: 31.6 µM
COc1ccc2cc3c(N)c(C(=O)NCc4ccco4)sc3nc2c1	active: 0.316 µM
COc1ccc(NC(=O)NCCCN2CCCC2=O)cc1	inconclusive: 5.01 µM [inhibitor, full curve, poor fit]
Cc1ccc(S(=O)(=O)n2nc(OC(=O)c3ccccc3C)cc2N)cc1	active: 31.6 µM
CCCCOC(=O)c1[nH]c2c(c1C)C(=O)CC(c1cc(OC)c(OC)c(OC)c1)C2 (centres undefined)	active: 31.6 µM
O=[N+]([O-])c1ccc(N/N=C/c2sc(N3CCOCC3)nc2-c2ccccc2)c(S(=O)(=O)Nc2ccc(Cl)cc2)c1	inconclusive: 3.98 µM [inhibitor, single point]
Cc1ccc(C(=O)N/C(=C\c2ccco2)C(=O)NCCCn2ccnc2)cc1C	inactive
CCN(CC)C(=O)N[C@H]1C[C@@H]2c3cccc4[nH]cc(c34)C[C@H]2N(C)C1	inactive
O=C(O)C/C(=C\c1cccc(NC(=O)c2ccccc2Cl)c1)c1nc2ccccc2s1	active: 15.8 µM
CCc1ccc(NC(=O)c2cnc3scc(C)n3c2=O)cc1	active: 35.5 µM
CCC(C)N1CC23C=CC(O2)C(C(=O)OC)C3C1=O (centres undefined)	active: 22.4 µM
COc1ccc(C2CC(c3cccs3)=NN2C(=O)CSc2nc(=O)n3ccccc3n2)cc1 (centres undefined)	inconclusive: 39.8 µM [inhibitor, single point]
CC(C)c1ccccc1-n1c(SCC(=O)c2ccc3c(c2)NC(=O)CO3)nc2ccccc2c1=O	inconclusive: 3.16 µM [inhibitor, full curve, poor fit]
C=CCn1c(=O)n(CCOC)c(=O)c2sc3ccccc3c21	inconclusive: 10 µM [inhibitor, partial curve, poor fit]
COc1cc(-c2nnc(SCC(=O)c3ccccc3)o2)cc(OC)c1OC	inactive
CC1CCCC(C)N1/N=C/c1ccc(C#N)cc1 (centres undefined)	inactive

Compound	Potency
CCOC(=O)C1=C(COC(=O)c2ccc(OC)c(OC)c2OC)NC(=O)NC1C (centres undefined)	inconclusive: 39.8 µM [inhibitor, single point]
COc1cc(Cl)c(C)cc1NC(=O)c1ccc(NS(=O)(=O)c2ccc(F)c(F)c2)cc1	inconclusive: 0.708 µM [inhibitor, full curve, poor fit]
CCc1cccc(C)c1NC(=O)COC(=O)C1CCN(S(=O)(=O)c2ccccc2)CC1	inconclusive: 39.8 µM [inhibitor, single point]
Cn1cccc1/C=N/NC(=O)c1cc2ccccc2cc1O	inconclusive: 15.8 µM [inhibitor, partial curve]
Cc1sc2ncnc(SCC(=O)NC(=O)NCc3ccco3)c2c1C	inconclusive: 2.51 µM [inhibitor, full curve, poor fit]
CC1(C)CC(=O)C2=C(C1)C(c1cn(-c3ccccc3)nc1-c1ccccc1)C(C#N)=C(N)O2 (centres undefined)	inconclusive: 14.1 µM [inhibitor, partial curve]
COc1ccccc1NC(=O)CSc1nnc(Cc2cccn2C)n1-c1ccc(F)cc1	active: 1.41 µM
O=C(O)c1cc(S(=O)(=O)O)ccc1O	inconclusive: 6.31 µM [inhibitor, single point]
COc1ccc(S(=O)(=O)N2CCOC2CNC(=O)C(=O)NCCN2CCOCC2)cc1 (centres undefined)	inactive
O=C1C2=C(C(=O)c3ccccc31)C1O[C@](CCCCN3C(=O)c4ccccc4C3=O)(Cc3ccccc31)O2	inconclusive: 3.98 µM [inhibitor, single point]
COc1ccccc1CCC(=O)OCC(=O)Nc1c(C)nn(-c2ccccc2)c1C	inconclusive: 28.2 µM [inhibitor, single point]
CC1CC(C)CN(C(=O)C(Cc2ccccc2)n2cccc2)C1 (centres undefined)	inactive
C/C(CC(=O)Nc1ccc(Cl)cc1Cl)=N\NC(=O)c1ccco1	active: 7.94 µM
Cc1cccc(-c2nsc(SCC(=O)Nc3ccc4c(c3)OCO4)n2)c1	inconclusive: 14.1 µM [inhibitor, partial curve, poor fit]
CC(C)CN(C(=O)C1CCCCC1)C1CCS(=O)(=O)C1 (centres undefined)	inconclusive: 39.8 µM [inhibitor, single point]
Cc1ccc(C(=O)/C=C/Nc2cccc(O)c2)cc1	inconclusive: 15.8 µM [inhibitor, partial curve]
N#Cc1c(NC(=O)CSc2nc3c(c(C(F)(F)F)n2)CCc2ccccc2-3)sc2c1CCCC2	inconclusive: 1.26 µM [inhibitor, partial curve, poor fit]
Cc1ccc(Cl)cc1NC(=O)C(NS(=O)(=O)c1cccs1)c1ccccc1 (centres undefined)	inconclusive: 28.2 µM [inhibitor, single point]
CC(C)CN(C(=O)COC(=O)C1CC1)c1c(N)n(Cc2ccccc2)c(=O)[nH]c1=O	inconclusive: 35.5 µM [inhibitor, single point]
Cc1ccccc1C(=O)Nc1cccc(C(=O)N/N=C/c2cc(Cl)cc([N+](=O)[O-])c2O)c1	inconclusive: 14.1 µM [inhibitor, partial curve]
C=CCOC(=O)/C(=C/c1cccc2ccccc12)NC(=O)c1ccccc1	active: 12.6 µM
Cc1cc(/C=C2/C(=O)NN(c3ccccc3)C2=O)c(C)n1-c1ccc(O)cc1	inconclusive: 20 µM [inhibitor, partial curve]
